Laboratory results taken from the supplement of paper PMC12067230.
The data scatter; read single values as rough.
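Note: [psi-pin-] Saccharomyces cerevisiae expressing SupN fusions, induced by 100 µM Cu2SO4, selected 7 d at 30 °C without adenine and uracil, scored by deep sequencing of output versus input.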

Test: amyloid nucleation score relative to library mode (yeast Sup35 reporter selection) (log enrichment difference); higher = more amyloid nucleation; sequences are the first 22 residues of the Bri2 peptide extended by up to 12 random residues
Conditions: random library (experiment): 1;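 active = nucleation score significantly above 0 at FDR 0.05; inactive = not significantly above 0 or absent from output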
In the case of EASNCFAIRHFENKFAVETLICVVRQGRRESGT, the amyloid nucleation score is reported as “inactive”. With EASNCFAIRHFENKFAVETLICVVRRGRQQNTAC the amyloid nucleation score was “inactive”. In the case of EASNCFAIRHFENKFAVETLICVVRVAKPSASTG, the amyloid nucleation score is reported as “inactive”. With EASNCFAIRHFENKFAVETLICVVRVPGAFVVR the amyloid nucleation score was “inactive”. With EASNCFAIRHFENKFAVETLICVVRWRGYGGLWR the amyloid nucleation score was “inactive”. In the case of EASNCFAIRHFENKFAVETLICVVSD, the amyloid nucleation score is reported as “inactive”. For EASNCFAIRHFENKFAVETLICVVSF, the amyloid nucleation score was “inactive”. EASNCFAIRHFENKFAVETLICVVSHNNFEVVNV showed an amyloid nucleation score of 7.29. With EASNCFAIRHFENKFAVETLICVVSHVMASYVEG the amyloid nucleation score was “inactive”. In the case of EASNCFAIRHFENKFAVETLICVVSNI, the amyloid nucleation score is reported as “inactive”. With EASNCFAIRHFENKFAVETLICVVSSLVYMTDSV the amyloid nucleation score was “inactive”. EASNCFAIRHFENKFAVETLICVVTHGGARYTGY showed an amyloid nucleation score of -0.00976. In the case of EASNCFAIRHFENKFAVETLICVVTSSTMTRGLG, the amyloid nucleation score is reported as 3.14. With EASNCFAIRHFENKFAVETLICVVTWRGGPVASW the amyloid nucleation score was “inactive”. With EASNCFAIRHFENKFAVETLICVVTYNIS the amyloid nucleation score was “inactive”. Sequence EASNCFAIRHFENKFAVETLICVVVGERCNASCS has an amyloid nucleation score of 4.4. Sequence EASNCFAIRHFENKFAVETLICVVVLAGGGLVRC has an amyloid nucleation score of 3.36. Work on EASNCFAIRHFENKFAVETLICVVVMVTDSSGGT yielded an amyloid nucleation score of 3.41. With EASNCFAIRHFENKFAVETLICVVVMWGQAWMGR the amyloid nucleation score was -0.163. In the case of EASNCFAIRHFENKFAVETLICVVVWHVVGYV, the amyloid nucleation score is reported as “inactive”. For EASNCFAIRHFENKFAVETLICVVVWRS, the amyloid nucleation score was “inactive”. In the case of EASNCFAIRHFENKFAVETLICVVWCVGKRFCRR, the amyloid nucleation score is reported as 5.62. In the case of EASNCFAIRHFENKFAVETLICVVWIR, the amyloid nucleation score is reported as “inactive”. With EASNCFAIRHFENKFAVETLICVVWRWWMSGSKG the amyloid nucleation score was “inactive”. For EASNCFAIRHFENKFAVETLICVVWSRCDCWRVG, the amyloid nucleation score was “inactive”. Work on EASNCFAIRHFENKFAVETLICVVWVRYRGAGQL yielded an amyloid nucleation score of 2.53. For EASNCFAIRHFENKFAVETLICVVWWCKNVCVLI, the amyloid nucleation score was “inactive”. For EASNCFAIRHFENKFAVETLICVVYCY, the amyloid nucleation score was 0.747. EASNCFAIRHFENKFAVETLICVVYDFVRDRFGE showed an amyloid nucleation score of 3.92. In the case of EASNCFAIRHFENKFAVETLICVVYKLVYIRSHL, the amyloid nucleation score is reported as “inactive”. With EASNCFAIRHFENKFAVETLICVVYLAVPARGDG the amyloid nucleation score was “inactive”. Sequence EASNCFAIRHFENKFAVETLICVWAEPSGSSFRM has an amyloid nucleation score of 1.99. In the case of EASNCFAIRHFENKFAVETLICVWAQGLGVCRRR, the amyloid nucleation score is reported as “inactive”. For EASNCFAIRHFENKFAVETLICVWCITTLGTAGV, the amyloid nucleation score was “inactive”. EASNCFAIRHFENKFAVETLICVWCRILRCGRW showed an amyloid nucleation score of 0.6. In the case of EASNCFAIRHFENKFAVETLICVWEALLLVNLAR, the amyloid nucleation score is reported as “inactive”. With EASNCFAIRHFENKFAVETLICVWFK the amyloid nucleation score was 1.29. For EASNCFAIRHFENKFAVETLICVWGTVLRFNVRT, the amyloid nucleation score was 0.618. In the case of EASNCFAIRHFENKFAVETLICVWHRLAEWLEKG, the amyloid nucleation score is reported as “inactive”. With EASNCFAIRHFENKFAVETLICVWIHGMCFKLWM the amyloid nucleation score was “inactive”. For EASNCFAIRHFENKFAVETLICVWLKES, the amyloid nucleation score was “inactive”. In the case of EASNCFAIRHFENKFAVETLICVWLLYNVAGQCR, the amyloid nucleation score is reported as “inactive”. For EASNCFAIRHFENKFAVETLICVWLRLYLVTLRS, the amyloid nucleation score was -0.179. For EASNCFAIRHFENKFAVETLICVWLRRVVWNLS, the amyloid nucleation score was “inactive”. In the case of EASNCFAIRHFENKFAVETLICVWLWLKWGGSMW, the amyloid nucleation score is reported as “inactive”. In the case of EASNCFAIRHFENKFAVETLICVWNEMQSVMSVR, the amyloid nucleation score is reported as “inactive”. With EASNCFAIRHFENKFAVETLICVWNRVI the amyloid nucleation score was “inactive”. With EASNCFAIRHFENKFAVETLICVWSFVLKIWKCA the amyloid nucleation score was “inactive”. With EASNCFAIRHFENKFAVETLICVWSVRGLTFVRM the amyloid nucleation score was 0.0764. With EASNCFAIRHFENKFAVETLICVWT the amyloid nucleation score was “inactive”. In the case of EASNCFAIRHFENKFAVETLICVWTWLRVLYVAC, the amyloid nucleation score is reported as “inactive”. In the case of EASNCFAIRHFENKFAVETLICVWVAWCKPTLRA, the amyloid nucleation score is reported as 0.00985. In the case of EASNCFAIRHFENKFAVETLICVWVKRPSGQPVV, the amyloid nucleation score is reported as “inactive”. With EASNCFAIRHFENKFAVETLICVWVLRDVLCNCS the amyloid nucleation score was “inactive”. Sequence EASNCFAIRHFENKFAVETLICVYASTFASELLT has an amyloid nucleation score of 1.57. EASNCFAIRHFENKFAVETLICVYCAALLPASDV showed an amyloid nucleation score of 7.65.

Same assay, conditions: random library (experiment): 2
For EASNCFAIRHFENKFAVETLICVVRSVN, the amyloid nucleation score was “inactive”. In the case of EASNCFAIRHFENKFAVETLICVVRVLCLPNGWL, the amyloid nucleation score is reported as “inactive”. For EASNCFAIRHFENKFAVETLICVVSSIF, the amyloid nucleation score was “inactive”. With EASNCFAIRHFENKFAVETLICVVSWEKSLPRWQ the amyloid nucleation score was -0.14. For EASNCFAIRHFENKFAVETLICVVSYRGYVCARY, the amyloid nucleation score was 3.97. With EASNCFAIRHFENKFAVETLICVVTC the amyloid nucleation score was “inactive”. For EASNCFAIRHFENKFAVETLICVVTIINTHGHSR, the amyloid nucleation score was “inactive”. With EASNCFAIRHFENKFAVETLICVVTKTTLLLNYG the amyloid nucleation score was “inactive”. For EASNCFAIRHFENKFAVETLICVVTS, the amyloid nucleation score was “inactive”. Sequence EASNCFAIRHFENKFAVETLICVVV has an amyloid nucleation score of 7.33. With EASNCFAIRHFENKFAVETLICVVVF the amyloid nucleation score was “inactive”. In the case of EASNCFAIRHFENKFAVETLICVVVFYSANRSRQ, the amyloid nucleation score is reported as “inactive”. With EASNCFAIRHFENKFAVETLICVVVRAVMRLTWV the amyloid nucleation score was “inactive”. With EASNCFAIRHFENKFAVETLICVVVRESVLVLWC the amyloid nucleation score was “inactive”. With EASNCFAIRHFENKFAVETLICVVVWADW the amyloid nucleation score was “inactive”. Sequence EASNCFAIRHFENKFAVETLICVVYNAEECSSKV has an amyloid nucleation score of 6.73. With EASNCFAIRHFENKFAVETLICVWA the amyloid nucleation score was “inactive”. In the case of EASNCFAIRHFENKFAVETLICVWCFKFMTLFHH, the amyloid nucleation score is reported as “inactive”. For EASNCFAIRHFENKFAVETLICVWCSSHYPSMGH, the amyloid nucleation score was 7.41. With EASNCFAIRHFENKFAVETLICVWDMLVDNSYVR the amyloid nucleation score was “inactive”. For EASNCFAIRHFENKFAVETLICVWKSLS, the amyloid nucleation score was “inactive”. EASNCFAIRHFENKFAVETLICVWKTFIEGYMCS gave an amyloid nucleation score of 1.1. Sequence EASNCFAIRHFENKFAVETLICVWL has an amyloid nucleation score of 5.27. For EASNCFAIRHFENKFAVETLICVWLIYKFTKWCV, the amyloid nucleation score was 3.52. EASNCFAIRHFENKFAVETLICVWM showed an amyloid nucleation score of 2.88. In the case of EASNCFAIRHFENKFAVETLICVWQNA, the amyloid nucleation score is reported as “inactive”. For EASNCFAIRHFENKFAVETLICVWQNSKARYKKM, the amyloid nucleation score was “inactive”. In the case of EASNCFAIRHFENKFAVETLICVWSFKNARVCTS, the amyloid nucleation score is reported as -0.0392. In the case of EASNCFAIRHFENKFAVETLICVWSRQTKDRYSE, the amyloid nucleation score is reported as “inactive”. For EASNCFAIRHFENKFAVETLICVWTNSCKVFSCT, the amyloid nucleation score was 5.54. In the case of EASNCFAIRHFENKFAVETLICVWTV, the amyloid nucleation score is reported as “inactive”. In the case of EASNCFAIRHFENKFAVETLICVWY, the amyloid nucleation score is reported as 2.51. With EASNCFAIRHFENKFAVETLICVWYLRVSRCIAV the amyloid nucleation score was “inactive”. EASNCFAIRHFENKFAVETLICVYAVLKDRKQVW gave an amyloid nucleation score of 2.67.

Same assay, conditions: random library (experiment): 3
In the case of EASNCFAIRHFENKFAVETLICVVRPVK, the amyloid nucleation score is reported as “inactive”. For EASNCFAIRHFENKFAVETLICVVSCY, the amyloid nucleation score was “inactive”. With EASNCFAIRHFENKFAVETLICVVSEWLRSSVCG the amyloid nucleation score was “inactive”. Sequence EASNCFAIRHFENKFAVETLICVVSGTVWVFRGR has an amyloid nucleation score of 0.0651. With EASNCFAIRHFENKFAVETLICVVSKTYSDTRYS the amyloid nucleation score was 3.99. In the case of EASNCFAIRHFENKFAVETLICVVTCFHRAMRVE, the amyloid nucleation score is reported as “inactive”. In the case of EASNCFAIRHFENKFAVETLICVVTYFWQLGVKP, the amyloid nucleation score is reported as “inactive”. With EASNCFAIRHFENKFAVETLICVVVIGAPRFQVW the amyloid nucleation score was “inactive”. With EASNCFAIRHFENKFAVETLICVVVLLGVDVRLC the amyloid nucleation score was “inactive”. With EASNCFAIRHFENKFAVETLICVVWAMNLAILRG the amyloid nucleation score was “inactive”. In the case of EASNCFAIRHFENKFAVETLICVVWVQTVVCA, the amyloid nucleation score is reported as “inactive”. Sequence EASNCFAIRHFENKFAVETLICVVYGA has an amyloid nucleation score of 5.21. For EASNCFAIRHFENKFAVETLICVVYSSLLCNSTG, the amyloid nucleation score was “inactive”. For EASNCFAIRHFENKFAVETLICVVYYVAPLKFEM, the amyloid nucleation score was “inactive”. In the case of EASNCFAIRHFENKFAVETLICVWDRTF, the amyloid nucleation score is reported as -0.0354. In the case of EASNCFAIRHFENKFAVETLICVWFYMICWQSAE, the amyloid nucleation score is reported as “inactive”. Sequence EASNCFAIRHFENKFAVETLICVWGE has an amyloid nucleation score of 5.21. Sequence EASNCFAIRHFENKFAVETLICVWGGLEELRYRR has an amyloid nucleation score of 6.75. With EASNCFAIRHFENKFAVETLICVWIGSVLCRRVT the amyloid nucleation score was “inactive”. In the case of EASNCFAIRHFENKFAVETLICVWLPYADLGRRN, the amyloid nucleation score is reported as 3.92. In the case of EASNCFAIRHFENKFAVETLICVWLVSSLAVEQS, the amyloid nucleation score is reported as “inactive”. EASNCFAIRHFENKFAVETLICVWPVER gave an amyloid nucleation score of 5.2. With EASNCFAIRHFENKFAVETLICVWQATSKEVWWW the amyloid nucleation score was “inactive”. With EASNCFAIRHFENKFAVETLICVWQMFWSTWRLL the amyloid nucleation score was “inactive”. In the case of EASNCFAIRHFENKFAVETLICVWR, the amyloid nucleation score is reported as “inactive”. In the case of EASNCFAIRHFENKFAVETLICVWRGLEVRTLRR, the amyloid nucleation score is reported as “inactive”. With EASNCFAIRHFENKFAVETLICVWRSARRRGARA the amyloid nucleation score was “inactive”. With EASNCFAIRHFENKFAVETLICVWTCE the amyloid nucleation score was “inactive”. For EASNCFAIRHFENKFAVETLICVWYQCQERWGKG, the amyloid nucleation score was “inactive”. For EASNCFAIRHFENKFAVETLICVWYSNVTVKPRQ, the amyloid nucleation score was “inactive”.
